# From the supplement of paper PMC8728848
# Some of the results follow.
# What was measured:
# Assay in all cases: glycan array binding signal (z-score within array); higher = stronger binding
# Conditions in all cases: glycan notation: IUPAC condensed, linker removed
# [1] = molecular target: Fuc(a1-3)GlcNAc
# Outline: (§1)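 The Consortium for Functional Glycomics database supplied 3228 glycan arrays, of which those lacking an available protein sequence were dropped. The binding signal, a within-array Z-score, was averaged across arrays of the same protein sequence and across linkers. Negative scores can be read as non-binding.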
# [2] = molecular target: Fuc(a1-3)[Gal(b1-4)]Glc6S
# Outline: as §1
# [3] = molecular target: Fuc(a1-3)[Gal(b1-4)]GlcNAc
# Outline: as §1
# [4] = molecular target: Fuc(a1-3)[Gal(b1-4)]GlcNAc(b1-2)Man
# Outline: as §1
# [5] = molecular target: Fuc(a1-3)[Gal(b1-4)]GlcNAc(b1-2)Man(a1-3)[Fuc(a1-3)[Gal(b1-4)]GlcNAc(b1-2)Man(a1-6)]Man(b1-4)GlcNAc(b1-4)GlcNAc
# Outline: as §1
# [6] = molecular target: Fuc(a1-3)[Gal(b1-4)]GlcNAc(b1-2)Man(a1-3)[Fuc(a1-3)[Gal(b1-4)]GlcNAc(b1-2)Man(a1-6)]Man(b1-4)GlcNAc(b1-4)[Fuc(a1-6)]GlcNAc
# Outline: as §1
# [7] = molecular target: Fuc(a1-3)[Gal(b1-4)]GlcNAc(b1-3)Gal(b1-3)[Fuc(a1-4)]GlcNAc
# Outline: as §1
# [8] = molecular target: Fuc(a1-3)[Gal(b1-4)]GlcNAc(b1-3)Gal(b1-4)[Fuc(a1-3)]GlcNAc
# Outline: as §1
# [9] = molecular target: Fuc(a1-3)[Gal(b1-4)]GlcNAc(b1-3)Gal(b1-4)[Fuc(a1-3)]GlcNAc(b1-3)Gal(b1-4)[Fuc(a1-3)]GlcNAc
# Outline: as §1
# [10] = molecular target: Fuc(a1-3)[Gal(b1-4)]GlcNAc(b1-3)GalNAc
# Outline: as §1
# [11] = molecular target: Fuc(a1-3)[Gal(b1-4)]GlcNAc(b1-6)GalNAc
# Outline: as §1
# [12] = molecular target: Fuc(a1-3)[Gal(b1-4)]GlcNAc(b1-6)[Gal(b1-3)GlcNAc(b1-3)]Gal(b1-4)Glc
# Outline: as §1
# [13] = molecular target: Fuc(a1-3)[Gal(b1-4)]GlcNAc6S
# Outline: as §1
# [14] = molecular target: Fuc(a1-3)[Gal3S(b1-4)]Glc
# Outline: as §1
# [15] = molecular target: Fuc(a1-3)[Gal3S(b1-4)]GlcNAc
# Outline: as §1
# [16] = molecular target: Fuc(a1-3)[Gal3S(b1-4)]GlcNAc6S
# Outline: as §1
# [17] = molecular target: Fuc(a1-3)[GalNAc(b1-4)]GlcNAc
# Outline: as §1
# [18] = molecular target: Fuc(a1-3)[GalNAc(b1-4)]GlcNAc6S
# Outline: as §1
# [19] = molecular target: Fuc(a1-4)GlcNAc
# Outline: as §1
# [20] = molecular target: Fuc(b1-3)GlcNAc
# Outline: as §1
# [21] = molecular target: Gal(a1-2)Gal
# Outline: as §1
# [22] = molecular target: Gal(a1-3)Gal
# Outline: as §1
# [23] = molecular target: Gal(a1-3)Gal(b1-3)GlcNAc
# Outline: as §1
# [24] = molecular target: Gal(a1-3)Gal(b1-3)GlcNAc(b1-2)Man
# Outline: as §1
# [25] = molecular target: Gal(a1-3)Gal(b1-3)GlcNAc(b1-2)Man(a1-3)[Gal(a1-3)Gal(b1-3)GlcNAc(b1-2)Man(a1-6)]Man(b1-4)GlcNAc(b1-4)GlcNAc
# Outline: as §1
# [26] = molecular target: Gal(a1-3)Gal(b1-3)GlcNAc(b1-3)GalNAc
# Outline: as §1
# [27] = molecular target: Gal(a1-3)Gal(b1-3)GlcNAc(b1-6)GalNAc
# Outline: as §1
# [28] = molecular target: Gal(a1-3)Gal(b1-3)[Fuc(a1-4)]GlcNAc(b1-2)Man(a1-3)[Gal(a1-3)Gal(b1-3)[Fuc(a1-4)]GlcNAc(b1-2)Man(a1-6)]Man(b1-4)GlcNAc(b1-4)GlcNAc
# Outline: as §1
# [29] = molecular target: Gal(a1-3)Gal(b1-4)Glc
# Outline: as §1
# [30] = molecular target: Gal(a1-3)Gal(b1-4)GlcNAc
# Outline: as §1
binder,measurement,setting,value
B725 (Bifidobacterium sp) (protein) MNNTTRAVIATAAIGALLIPLAGCGNTTTSSGKTELTVWSWDASIDRAAKSFMKANPDITVKVSNVGSTEETYTALNNAAQAGSGLPDVTLIEYLAIPQFVHSDTLMDLSKVYNTAKLKDTFTPGTWNSVNINGGLYAMPADSGPMAYFYDKDVFDKAGISEPPTTWDEFYEDAKKIRATGSYITSDSGDAGLFNAMMWAMGGHAYKLNDDKLTINIAKDKGAQRFMDLWQKMRDEDLIDVHTKTWTDDWMKSLGDGSIASLISGAWMANNLLQGVPQATGKFRVALLPTIDGTPINGEYGGSGLAITKKIPDGKLDAAKKFVEYVTTNDEGIDARVSNGSFPATTKTLNQKDFLAKTTLRNTDGSDNEFFGGQKYNEIFSQAAKDVTGKWEFLPFEPYARSVYNDNMGSFFAGKTSFRTAADNWQKALKDYAKDQGFTVQ,glycan array binding signal (z-score),[1],-0.227
same,glycan array binding signal (z-score),[2],-0.183
same,glycan array binding signal (z-score),[3],-0.192
same,glycan array binding signal (z-score),[4],-0.21
same,glycan array binding signal (z-score),[5],-0.228
same,glycan array binding signal (z-score),[6],-0.197
same,glycan array binding signal (z-score),[7],-0.218
same,glycan array binding signal (z-score),[8],-0.099
same,glycan array binding signal (z-score),[9],-0.21
same,glycan array binding signal (z-score),[10],-0.216
same,glycan array binding signal (z-score),[11],-0.187
same,glycan array binding signal (z-score),[12],-0.174
same,glycan array binding signal (z-score),[13],-0.21
same,glycan array binding signal (z-score),[14],-0.235
same,glycan array binding signal (z-score),[15],-0.223
same,glycan array binding signal (z-score),[16],-0.2
same,glycan array binding signal (z-score),[17],-0.205
same,glycan array binding signal (z-score),[18],-0.229
same,glycan array binding signal (z-score),[19],-0.228
same,glycan array binding signal (z-score),[20],-0.226
same,glycan array binding signal (z-score),[21],-0.225
same,glycan array binding signal (z-score),[22],-0.225
same,glycan array binding signal (z-score),[23],-0.21
same,glycan array binding signal (z-score),[24],-0.205
same,glycan array binding signal (z-score),[25],-0.212
same,glycan array binding signal (z-score),[26],-0.205
same,glycan array binding signal (z-score),[27],-0.206
same,glycan array binding signal (z-score),[28],-0.181
same,glycan array binding signal (z-score),[29],-0.201
same,glycan array binding signal (z-score),[30],-0.227
